Article PMC9911399, “Two distinct binding modes provide the RNA-binding protein RbFox with extraordinary sequence specificity”
Substitutions are numbered along the chain they refer to; changes in the protein carry UniProt numbers. Some of the results follow.

T1: RBFOX1 RRM (Homo sapiens, UniProt Q9NWB1 109-208)
T1 sequence: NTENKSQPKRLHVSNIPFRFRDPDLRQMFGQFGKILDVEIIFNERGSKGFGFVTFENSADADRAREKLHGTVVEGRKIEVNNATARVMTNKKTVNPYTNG

B1: UCUCUGU (DNA:RNA)
RNA: GGGAGACCGGAAUUCAGAUUGUCCUCUCUGUUUAAAUCCCGUCGUAGCCACCA
DNA 1: CAATCTGAATTCCGGTCTCCC
DNA 2: TGGTGGCTACGACGGGATT
B2: UUGGAUA (DNA:RNA)
RNA: B1 RNA with C26U, U27G, C28G, U29A, G30U, U31A
DNA 1: CAATCTGAATTCCGGTCTCCC
DNA 2: TGGTGGCTACGACGGGATT
B3: ACUAAAU (DNA:RNA)
RNA: B1 RNA with U25A, C28A, U29A, G30A
DNA 1: CAATCTGAATTCCGGTCTCCC
DNA 2: TGGTGGCTACGACGGGATT
B4: ACCGUUG (DNA:RNA)
RNA: B1 RNA with U25A, U27C, C28G, G30U, U31G
DNA 1: CAATCTGAATTCCGGTCTCCC
DNA 2: TGGTGGCTACGACGGGATT
B5: CGAAUCU (DNA:RNA)
RNA: B1 RNA with U25C, C26G, U27A, C28A, G30C
DNA 1: CAATCTGAATTCCGGTCTCCC
DNA 2: TGGTGGCTACGACGGGATT
B6: UUUAAGU (DNA:RNA)
RNA: B1 RNA with C26U, C28A, U29A
DNA 1: CAATCTGAATTCCGGTCTCCC
DNA 2: TGGTGGCTACGACGGGATT
B7: GGGAUAG (DNA:RNA)
RNA: B1 RNA with U25G, C26G, U27G, C28A, G30A, U31G
DNA 1: CAATCTGAATTCCGGTCTCCC
DNA 2: TGGTGGCTACGACGGGATT
B8: UCCCUUC (DNA:RNA)
RNA: B1 RNA with U27C, G30U, U31C
DNA 1: CAATCTGAATTCCGGTCTCCC
DNA 2: TGGTGGCTACGACGGGATT
B9: AAACGGA (DNA:RNA)
RNA: B1 RNA with U25A, C26A, U27A, U29G, U31A
DNA 1: CAATCTGAATTCCGGTCTCCC
DNA 2: TGGTGGCTACGACGGGATT
B10: ACGCCGC (DNA:RNA)
RNA: B1 RNA with U25A, U27G, U29C, U31C
DNA 1: CAATCTGAATTCCGGTCTCCC
DNA 2: TGGTGGCTACGACGGGATT
B11: UCACAGU (DNA:RNA)
RNA: B1 RNA with U27A, U29A
DNA 1: CAATCTGAATTCCGGTCTCCC
DNA 2: TGGTGGCTACGACGGGATT
B12: CCAUGGA (DNA:RNA)
RNA: B1 RNA with U25C, U27A, C28U, U29G, U31A
DNA 1: CAATCTGAATTCCGGTCTCCC
DNA 2: TGGTGGCTACGACGGGATT
B13: UCCUUAG (DNA:RNA)
RNA: B1 RNA with U27C, C28U, G30A, U31G
DNA 1: CAATCTGAATTCCGGTCTCCC
DNA 2: TGGTGGCTACGACGGGATT
B14: AAGGCCU (DNA:RNA)
RNA: B1 RNA with U25A, C26A, U27G, C28G, U29C, G30C
DNA 1: CAATCTGAATTCCGGTCTCCC
DNA 2: TGGTGGCTACGACGGGATT
B15: UGCGCGC (DNA:RNA)
RNA: B1 RNA with C26G, U27C, C28G, U29C, U31C
DNA 1: CAATCTGAATTCCGGTCTCCC
DNA 2: TGGTGGCTACGACGGGATT
B16: GCCAUGC (DNA:RNA)
RNA: B1 RNA with U25G, U27C, C28A, U31C
DNA 1: CAATCTGAATTCCGGTCTCCC
DNA 2: TGGTGGCTACGACGGGATT
B17: CGGGGAC (DNA:RNA)
RNA: GGGAGACCGGAAUUCAGAUUGUCCCGGGGACUUAAAUCCCGUCGUAGCCACCA
DNA 1: CAATCTGAATTCCGGTCTCCC
DNA 2: TGGTGGCTACGACGGGATT
B18: CUUACAC (DNA:RNA)
RNA: B17 RNA with G26U, G27U, G28A, G29C
DNA 1: CAATCTGAATTCCGGTCTCCC
DNA 2: TGGTGGCTACGACGGGATT
B19: UGAUAUA (DNA:RNA)
RNA: B17 RNA with C25U, G27A, G28U, G29A, A30U, C31A
DNA 1: CAATCTGAATTCCGGTCTCCC
DNA 2: TGGTGGCTACGACGGGATT
B20: AUUACGU (DNA:RNA)
RNA: B1 RNA with U25A, C26U, C28A, U29C
DNA 1: CAATCTGAATTCCGGTCTCCC
DNA 2: TGGTGGCTACGACGGGATT
B21: CAGCGUA (DNA:RNA)
RNA: B17 RNA with G26A, G28C, A30U, C31A
DNA 1: CAATCTGAATTCCGGTCTCCC
DNA 2: TGGTGGCTACGACGGGATT
B22: GACCGCU (DNA:RNA)
RNA: B1 RNA with U25G, C26A, U27C, U29G, G30C
DNA 1: CAATCTGAATTCCGGTCTCCC
DNA 2: TGGTGGCTACGACGGGATT
B23: ACCCUGU (DNA:RNA)
RNA: B1 RNA with U25A, U27C
DNA 1: CAATCTGAATTCCGGTCTCCC
DNA 2: TGGTGGCTACGACGGGATT
B24: UUGAGUA (DNA:RNA)
RNA: B17 RNA with C25U, G26U, G28A, A30U, C31A
DNA 1: CAATCTGAATTCCGGTCTCCC
DNA 2: TGGTGGCTACGACGGGATT
B25: GGUACGC (DNA:RNA)
RNA: B17 RNA with C25G, G27U, G28A, G29C, A30G
DNA 1: CAATCTGAATTCCGGTCTCCC
DNA 2: TGGTGGCTACGACGGGATT
B26: GGCUACG (DNA:RNA)
RNA: B17 RNA with C25G, G27C, G28U, G29A, A30C, C31G
DNA 1: CAATCTGAATTCCGGTCTCCC
DNA 2: TGGTGGCTACGACGGGATT
B27: UCAACCG (DNA:RNA)
RNA: B1 RNA with U27A, C28A, U29C, G30C, U31G
DNA 1: CAATCTGAATTCCGGTCTCCC
DNA 2: TGGTGGCTACGACGGGATT
B28: GGCCGCC (DNA:RNA)
RNA: B17 RNA with C25G, G27C, G28C, A30C
DNA 1: CAATCTGAATTCCGGTCTCCC
DNA 2: TGGTGGCTACGACGGGATT
B29: GGCAAGA (DNA:RNA)
RNA: B17 RNA with C25G, G27C, G28A, G29A, A30G, C31A
DNA 1: CAATCTGAATTCCGGTCTCCC
DNA 2: TGGTGGCTACGACGGGATT
B30: GCUACCU (DNA:RNA)
RNA: B1 RNA with U25G, C28A, U29C, G30C
DNA 1: CAATCTGAATTCCGGTCTCCC
DNA 2: TGGTGGCTACGACGGGATT
B31: CACGUGU (DNA:RNA)
RNA: B1 RNA with U25C, C26A, U27C, C28G
DNA 1: CAATCTGAATTCCGGTCTCCC
DNA 2: TGGTGGCTACGACGGGATT

target: T1, RBFOX1 RRM; assay: EMSA; HiTS-Eq, 1 nM pool, 10 min; buffer printed only for the single-RNA assays: 10 mM Tris pH 7.5, 150 mM NaCl, 3.4 mM EDTA, 0.001% NP-40, 30 C; settings: tags: His6 N-terminal (pET28a); label: 5' 32P
Method in brief: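 Relative association constants, normalised to the cognate motif, were derived by comparing read counts of each RNA species with those of the control reaction. The RNA sequenced was the free fraction, separated by 8% native PAGE after a 10 min equilibration in 50 µL of 1 nM 5′-radiolabelled RNA (7 randomized nucleotides) with increasing concentrations of purified wild-type or mutant RbFox RRM.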

Row | Binder | binding signal
1 | B1 | 0.0181 KA relative to UGCAUGU
2 | B2 | 0.0092 KA relative to UGCAUGU
3 | B3 | 0.00155 KA relative to UGCAUGU
4 | B4 | 0.0109 KA relative to UGCAUGU
5 | B5 | 0.0102 KA relative to UGCAUGU
6 | B6 | 0.0116 KA relative to UGCAUGU
7 | B7 | 0.0337 KA relative to UGCAUGU
8 | B8 | 0.00495 KA relative to UGCAUGU
9 | B9 | 0.0022 KA relative to UGCAUGU
10 | B10 | 0.0107 KA relative to UGCAUGU
11 | B11 | 0.00466 KA relative to UGCAUGU
12 | B12 | 0.0121 KA relative to UGCAUGU
13 | B13 | 0.00853 KA relative to UGCAUGU
14 | B14 | 0.0074 KA relative to UGCAUGU
15 | B15 | 0.0256 KA relative to UGCAUGU
16 | B16 | 0.0131 KA relative to UGCAUGU

Row | Binder | binding signal
17 | B17 | 0.0143 KA relative to UGCAUGU
18 | B18 | 0.00166 KA relative to UGCAUGU
19 | B19 | 0.0076 KA relative to UGCAUGU
20 | B20 | 0.00906 KA relative to UGCAUGU
21 | B21 | 0.00468 KA relative to UGCAUGU
22 | B22 | 0.0117 KA relative to UGCAUGU
23 | B23 | 0.00514 KA relative to UGCAUGU
24 | B24 | 0.0152 KA relative to UGCAUGU
25 | B25 | 0.0185 KA relative to UGCAUGU
26 | B26 | 0.0271 KA relative to UGCAUGU
27 | B27 | 0.000694 KA relative to UGCAUGU
28 | B28 | 0.0087 KA relative to UGCAUGU
29 | B29 | 0.0132 KA relative to UGCAUGU
30 | B30 | 0.00981 KA relative to UGCAUGU
31 | B31 | 0.0106 KA relative to UGCAUGU
